Measured values from patent publication US11618753B2 (priority 2018, dated 2023).

tested on: MLKL phosphorylation, HT29-L23 human colorectal adenocarcinoma cells; experiment: cells; conditions: read-out: pMLKL HCS Cell Assay (IC50, uM)

`CCc1c(F)cc(-c2cc(C(F)(F)F)c3c(N)ncnn23)cc1C(=O)N[C@@H]1CN(C(=O)CC(F)(F)F)C[C@@H]1F` [Example 648, 5-[4-amino-5-(trifluoromethyl)pyrrolo[2,1-f][1,2,4]triazin-7-yl]-2-ethyl-3-fluoro-N-[(3R,4S)-4-fluoro-1-(3,3,3-trifluoropropanoyl)pyrrolidin-3-yl]benzamide] and `CCc1c(F)cc(-c2cc(C(F)(F)F)c3c(N)ncnn23)cc1C(=O)N[C@@H]1CN(C(=O)CC(C)(O)C(F)(F)F)C[C@@H]1F` (stereo partly drawn) [Example 653, 5-[4-amino-5-(trifluoromethyl)pyrrolo[2,1-f][1,2,4]triazin-7-yl]-2-ethyl-3-fluoro-N-[(3R,4S)-4-fluoro-1-(4,4,4-trifluoro-3-hydroxy-3-methylbutanoyl)pyrrolidin-3-yl]benzamide] are within 1.5-fold of each other in IC50: 0.021 µM for the first, 0.022 µM for the second.

First: CCc1c(F)cc(-c2cc(C(F)(F)F)c3c(N)ncnn23)cc1C(=O)N[C@@H]1CN(C(=O)C2CC2(F)F)C[C@@H]1F (stereo partly drawn) [Example 649, 5-[4-amino-5-(trifluoromethyl)pyrrolo[2,1-f][1,2,4]triazin-7-yl]-N-[(3R,4S)-1-(2,2-difluorocyclopropanecarbonyl)-4-fluoropyrrolidin-3-yl]-2-ethyl-3-fluorobenzamide]
Second: Cc1c(F)cc(-c2cc(C(F)(F)F)c3c(N)ncnn23)cc1C(=O)N[C@@H]1CN(C(=O)C2CC2(F)F)C[C@@H]1F (stereo partly drawn) [Example 675, 5-[4-amino-5-(trifluoromethyl)pyrrolo[2,1-f][1,2,4]triazin-7-yl]-N-[(3R,4S)-1-(2,2-difluorocyclopropanecarbonyl)-4-fluoropyrrolidin-3-yl]-3-fluoro-2-methylbenzamide]
The IC50 of the first is 9-fold higher: 0.035 µM for the first, 0.0039 µM for the second.

First: CCc1c(F)cc(-c2cc(C(F)(F)F)c3c(N)ncnn23)cc1C(=O)N[C@@H]1CN(C(=O)[C@@](C)(O)C(F)(F)F)C[C@@H]1F [Example 650, 5-[4-amino-5-(trifluoromethyl)pyrrolo[2,1-f][1,2,4]triazin-7-yl]-2-ethyl-3-fluoro-N-[(3R,4S)-4-fluoro-1-[(2R)-3,3,3-trifluoro-2-hydroxy-2-methylpropanoyl]pyrrolidin-3-yl]benzamide]
Second: CCc1c(F)cc(-c2cc(C(F)(F)F)c3c(N)ncnn23)cc1C(=O)N[C@@H]1CN(C(=O)C(C)(C)F)C[C@@H]1F [Example 659, 5-[4-amino-5-(trifluoromethyl)pyrrolo[2,1-f][1,2,4]triazin-7-yl]-2-ethyl-3-fluoro-N-[(3R,4S)-4-fluoro-1-(2-fluoro-2-methylpropanoyl)pyrrolidin-3-yl]benzamide]
The IC50 of the first is 4-fold lower: 0.0045 µM for the first, 0.018 µM for the second. The first is the more potent here.

First: CCc1c(F)cc(-c2cc(C(F)(F)F)c3c(N)ncnn23)cc1C(=O)N[C@@H]1CN(C(=O)CC(C)C(F)(F)F)C[C@@H]1F (stereo partly drawn) [Example 652, 5-[4-amino-5-(trifluoromethyl)pyrrolo[2,1-f][1,2,4]triazin-7-yl]-2-ethyl-3-fluoro-N-[(3R,4S)-4-fluoro-1-(4,4,4-trifluoro-3-methylbutanoyl)pyrrolidin-3-yl]benzamide]
Second: Cc1c(F)cc(-c2cc(C(F)(F)F)c3c(N)ncnn23)cc1C(=O)N[C@@H]1CN(C(=O)CC(C)C(F)(F)F)C[C@@H]1F (stereo partly drawn) [Example 662, 5-[4-amino-5-(trifluoromethyl)pyrrolo[2,1-f][1,2,4]triazin-7-yl]-3-fluoro-N-[(3R,4S)-4-fluoro-1-(4,4,4-trifluoro-3-methylbutanoyl)pyrrolidin-3-yl]-2-methylbenzamide]
The IC50 of the first is 6.1-fold higher: 0.0086 µM for the first, 0.0014 µM for the second.

Going from `CCc1c(F)cc(-c2cc(C(F)(F)F)c3c(N)ncnn23)cc1C(=O)N[C@@H]1CN(C(=O)CC(C(F)(F)F)C(F)(F)F)C[C@@H]1F` [Example 654, 54-[4-amino-5-(trifluoromethyl)pyrrolo[2,1-f][1,2,4]triazin-7-yl]-2-ethyl-3-fluoro-N-[(3R,4S)-4-fluoro-1-[4,4,4-trifluoro-3-(trifluoromethyl)butanoyl]pyrrolidin-3-yl]benzamide] to `CCc1c(F)cc(-c2cc(C(F)(F)F)c3c(N)ncnn23)cc1C(=O)N[C@@H]1CN(C(=O)C(C)C(F)(F)F)C[C@@H]1F` (stereo partly drawn) [Example 661, 5-[4-amino-5-(trifluoromethyl)pyrrolo[2,1-f][1,2,4]triazin-7-yl]-2-ethyl-3-fluoro-N-[(3R,4S)-4-fluoro-1-(3,3,3-trifluoro-2-methylpropanoyl)pyrrolidin-3-yl]benzamide], the IC50 rises from 0.0067 µM to 0.026 µM (3.9-fold).

`CCc1c(F)cc(-c2cc(C(F)(F)F)c3c(N)ncnn23)cc1C(=O)N[C@@H]1CN(C(=O)C2(F)CC2)C[C@@H]1F` [Example 657, 5-[4-amino-5-(trifluoromethyl)pyrrolo[2,1-f][1,2,4]triazin-7-yl]-2-ethyl-3-fluoro-N-[(3R,4S)-4-fluoro-1-(1-fluorocyclopropanecarbonyl)pyrrolidin-3-yl]benzamide] and `CCc1c(F)cc(-c2cc(C(F)(F)F)c3c(N)ncnn23)cc1C(=O)N[C@@H]1CN(C(=O)C2CCC(F)(F)CC2)C[C@@H]1F` [Example 660, 5-[4-amino-5-(trifluoromethyl)pyrrolo[2,1-f][1,2,4]triazin-7-yl]-N-[(3R,4S)-1-(4,4-difluorocyclohexanecarbonyl)-4-fluoropyrrolidin-3-yl]-2-ethyl-3-fluorobenzamide] are within 1.5-fold of each other in IC50: 0.013 µM for the first, 0.0094 µM for the second.

First: Cc1c(F)cc(-c2cc(C(F)(F)F)c3c(N)ncnn23)cc1C(=O)N[C@@H]1CN(C(=O)C2CCC2)C[C@@H]1F [Example 663, 5-[4-amino-5-(trifluoromethyl)pyrrolo[2,1-f][1,2,4]triazin-7-yl]-N-[(3R,4S)-1-cyclobutanecarbonyl-4-fluoropyrrolidin-3-yl]-3-fluoro-2-methylbenzamide]
Second: Cc1c(F)cc(-c2cc(C(F)(F)F)c3c(N)ncnn23)cc1C(=O)N[C@@H]1CN(C(=O)C2CCC(F)(F)CC2)C[C@@H]1F [Example 674, 5-[4-amino-5-(trifluoromethyl)pyrrolo[2,1-f][1,2,4]triazin-7-yl]-N-[(3R,4S)-1-(4,4-difluorocyclohexanecarbonyl)-4-fluoropyrrolidin-3-yl]-3-fluoro-2-methylbenzamide]
The IC50 of the first is 2.4-fold lower: 0.002 µM for the first, 0.0049 µM for the second.

Going from `Cc1c(F)cc(-c2cc(C(F)(F)F)c3c(N)ncnn23)cc1C(=O)N[C@@H]1CN(C(=O)CC(F)(F)F)C[C@@H]1F` [Example 664, 5-[4-amino-5-(trifluoromethyl)pyrrolo[2,1-f][1,2,4]triazin-7-yl]-3-fluoro-N-[(3R,4S)-4-fluoro-1-(3,3,3-trifluoropropanoyl)pyrrolidin-3-yl]-2-methylbenzamide] to `Cc1c(F)cc(-c2cc(C(F)(F)F)c3c(N)ncnn23)cc1C(=O)N[C@@H]1CN(C(=O)[C@@H](O)C(F)(F)F)C[C@@H]1F` [Example 672, 5-[4-amino-5-(trifluoromethyl)pyrrolo[2,1-f][1,2,4]triazin-7-yl]-3-fluoro-N-[(3R,4S)-4-fluoro-1-[(2R)-3,3,3-trifluoro-2-hydroxypropanoyl]pyrrolidin-3-yl]-2-methylbenzamide], the IC50 rises from 0.01 µM to 0.015 µM (1.5-fold). The first is the more potent here.

Going from `Cc1c(F)cc(-c2cc(C(F)(F)F)c3c(N)ncnn23)cc1C(=O)N[C@@H]1CN(C(=O)C(C)(C)O)C[C@@H]1F` [Example 665, 5-[4-amino-5-(trifluoromethyl)pyrrolo[2,1-f][1,2,4]triazin-7-yl]-3-fluoro-N-[(3R,4S)-4-fluoro-1-(2-hydroxy-2-methylpropanoyl)pyrrolidin-3-yl]-2-methylbenzamide] to `Cc1c(F)cc(-c2cc(C(F)(F)F)c3c(N)ncnn23)cc1C(=O)N[C@@H]1CN(C(=O)C(C)(C)C)C[C@@H]1F` [Example 666, 5-[4-amino-5-(trifluoromethyl)pyrrolo[2,1-f][1,2,4]triazin-7-yl]-N-[(3R,4S)-1-(2,2-dimethylpropanoyl)-4-fluoropyrrolidin-3-yl]-3-fluoro-2-methylbenzamide], the IC50 falls from 0.025 µM to 0.0029 µM (8.6-fold).

First: Cc1c(F)cc(-c2cc(C(F)(F)F)c3c(N)ncnn23)cc1C(=O)N[C@@H]1CN(C(=O)CC(C)C)C[C@@H]1F [Example 667, 5-[4-amino-5-(trifluoromethyl)pyrrolo[2,1-f][1,2,4]triazin-7-yl]-3-fluoro-N-[(3R,4S)-4-fluoro-1-(3-methylbutanoyl)pyrrolidin-3-yl]-2-methylbenzamide]
Second: Cc1c(F)cc(-c2cc(C(F)(F)F)c3c(N)ncnn23)cc1C(=O)N[C@@H]1CN(C(=O)C(C)(C)F)C[C@@H]1F [Example 673, 5-[4-amino-5-(trifluoromethyl)pyrrolo[2,1-f][1,2,4]triazin-7-yl]-3-fluoro-N-[(3R,4S)-4-fluoro-1-(2-fluoro-2-methylpropanoyl)pyrrolidin-3-yl]-2-methylbenzamide]
The IC50 of the first is 3-fold lower: 0.0026 µM for the first, 0.0079 µM for the second.

`Cc1c(F)cc(-c2cc(C(F)(F)F)c3c(N)ncnn23)cc1C(=O)N[C@@H]1CN(C(=O)c2ccccc2F)C[C@@H]1F` [Example 669, 5-[4-amino-5-(trifluoromethyl)pyrrolo[2,1-f][1,2,4]triazin-7-yl]-3-fluoro-N-[(3R,4S)-4-fluoro-1-(2-fluorobenzoyl)pyrrolidin-3-yl]-2-methylbenzamide] and `Cc1c(F)cc(-c2cc(C(F)(F)F)c3c(N)ncnn23)cc1C(=O)N[C@@H]1CN(C(=O)C2CC(F)(F)C2)C[C@@H]1F` [Example 677, 5-[4-amino-5-(trifluoromethyl)pyrrolo[2,1-f][1,2,4]triazin-7-yl]-N-[(3R,4S)-1-(3,3-difluorocyclobutanecarbonyl)-4-fluoropyrrolidin-3-yl]-3-fluoro-2-methylbenzamide] are within 1.5-fold of each other in IC50: 0.003 µM for the first, 0.0021 µM for the second.

First: Cc1c(F)cc(-c2cc(C(F)(F)F)c3c(N)ncnn23)cc1C(=O)N[C@@H]1CN(C(=O)C2(O)CCC2)C[C@@H]1F [Example 671, 5-[4-amino-5-(trifluoromethyl)pyrrolo[2,1-f][1,2,4]triazin-7-yl]-3-fluoro-N-[(3R,4S)-4-fluoro-1-(1-hydroxycyclobutanecarbonyl)pyrrolidin-3-yl]-2-methylbenzamide]
Second: Cc1c(F)cc(-c2cc(C(F)(F)F)c3c(N)ncnn23)cc1C(=O)N[C@@H]1CN(C(=O)C(C)(C)C(F)(F)F)C[C@@H]1F [Example 676, 5-[4-amino-5-(trifluoromethyl)pyrrolo[2,1-f][1,2,4]triazin-7-yl]-3-fluoro-N-[(3R,4S)-4-fluoro-1-(3,3,3-trifluoro-2,2-dimethylpropanoyl)pyrrolidin-3-yl]-2-methylbenzamide]
The IC50 of the first is 1.6-fold higher: 0.0039 µM for the first, 0.0025 µM for the second.
